# According to the supplement of paper PMC8728848:
# The list shows a part of the results.
# Experiments:
# Test in all cases: glycan array binding signal (z-score within array); higher = stronger binding
# Conditions in all cases: glycan notation: IUPAC condensed, linker removed
# [1] = target: Neu5Ac(a2-6)Gal(b1-4)GlcNAc(b1-3)[Neu5Ac(a2-6)Gal(b1-4)GlcNAc(b1-6)]GalNAc
# How it was run: (§1)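 Columns mapping to the same glycan were averaged after glycan names were converted to IUPAC-condensed notation. The data come from 3228 arrays in the Consortium for Functional Glycomics database, limited to those with an available protein sequence. Binding is reported as a within-array Z-score averaged across arrays of one protein sequence and across linkers.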
# [2] = target: Neu5Ac(a2-6)Gal(b1-4)GlcNAc(b1-6)GalNAc
# How it was run: as §1
# [3] = target: Neu5Ac(a2-6)Gal(b1-4)GlcNAc(b1-6)[Gal(b1-3)GlcNAc(b1-3)]Gal(b1-4)Glc
# How it was run: as §1
# [4] = target: Neu5Ac(a2-6)Gal(b1-4)GlcNAc(b1-6)[Gal(b1-3)]GalNAc
# How it was run: as §1
# [5] = target: Neu5Ac(a2-6)Gal(b1-4)GlcNAc6S
# How it was run: as §1
# Neu5Ac(a2-6)GalNAc = target: Neu5Ac(a2-6)GalNAc
# How it was run: as §1
# [6] = target: Neu5Ac(a2-6)GalNAc(b1-4)GlcNAc
# How it was run: as §1
# [7] = target: Neu5Ac(a2-6)GalNAc(b1-4)GlcNAc6S
# How it was run: as §1
# [8] = target: Neu5Ac(a2-6)GlcNAc(b1-4)GlcNAc
# How it was run: as §1
# [9] = target: Neu5Ac(a2-6)GlcNAc(b1-4)GlcNAc(b1-4)GlcNAc
# How it was run: as §1
# Neu5Ac(a2-8)Neu5Ac = target: Neu5Ac(a2-8)Neu5Ac
# How it was run: as §1
# [10] = target: Neu5Ac(a2-8)Neu5Ac(a2-3)Gal(b1-3)GalNAc(b1-4)[Neu5Ac(a2-3)]Gal(b1-4)Glc
# How it was run: as §1
# [11] = target: Neu5Ac(a2-8)Neu5Ac(a2-3)Gal(b1-3)GalNAc(b1-4)[Neu5Ac(a2-8)Neu5Ac(a2-3)]Gal(b1-4)Glc
# How it was run: as §1
# [12] = target: Neu5Ac(a2-8)Neu5Ac(a2-3)Gal(b1-4)Glc
# How it was run: as §1
# [13] = target: Neu5Ac(a2-8)Neu5Ac(a2-3)Gal(b1-4)GlcNAc
# How it was run: as §1
# [14] = target: Neu5Ac(a2-8)Neu5Ac(a2-3)[Gal(b1-3)GalNAc(b1-4)]Gal(b1-4)Glc
# How it was run: as §1
# [15] = target: Neu5Ac(a2-8)Neu5Ac(a2-3)[GalNAc(b1-4)]Gal(b1-4)Glc
# How it was run: as §1
# [16] = target: Neu5Ac(a2-8)Neu5Ac(a2-8)Neu5Ac
# How it was run: as §1
# [17] = target: Neu5Ac(a2-8)Neu5Ac(a2-8)Neu5Ac(a2-3)Gal(b1-4)Glc
# How it was run: as §1
# [18] = target: Neu5Ac(a2-8)Neu5Ac(a2-8)Neu5Ac(a2-3)[Gal(b1-3)GalNAc(b1-4)]Gal(b1-4)Glc
# How it was run: as §1
# [19] = target: Neu5Ac(a2-8)Neu5Ac(a2-8)Neu5Ac(a2-3)[GalNAc(b1-4)]Gal(b1-4)Glc
# How it was run: as §1
# [20] = target: Neu5Ac(a2-8)Neu5Ac(a2-8)Neu5Ac(a2-8)Neu5Ac(a2-3)[GalNAc(b1-4)]Gal(b1-4)Glc
# How it was run: as §1
# [21] = target: Neu5Ac(a2-8)Neu5Gc(a2-3)Gal(b1-4)GlcNAc
# How it was run: as §1
# [22] = target: Neu5Ac(b2-6)Gal(b1-4)GlcNAc
# How it was run: as §1
# Neu5Ac(b2-6)GalNAc = target: Neu5Ac(b2-6)GalNAc
# How it was run: as §1
# [23] = target: Neu5Ac9Ac(a2-3)Gal(b1-3)GlcNAc
# How it was run: as §1
# [24] = target: Neu5Ac9Ac(a2-3)Gal(b1-4)GlcNAc
# How it was run: as §1
# [25] = target: Neu5Ac9Ac(a2-6)Gal(b1-4)GlcNAc
# How it was run: as §1
# [26] = target: Neu5Gc(a2-3)Gal(b1-3)GlcNAc
# How it was run: as §1
# [27] = target: Neu5Gc(a2-3)Gal(b1-3)[Fuc(a1-4)]GlcNAc
# How it was run: as §1
# Neu5Gc(a2-3)Gal(b1-4)Glc = target: Neu5Gc(a2-3)Gal(b1-4)Glc
# How it was run: as §1
# [28] = target: Neu5Gc(a2-3)Gal(b1-4)GlcNAc
# How it was run: as §1
# [29] = target: Neu5Gc(a2-3)Gal(b1-4)GlcNAc(b1-3)Gal(b1-4)GlcNAc(b1-2)Man(a1-3)[Neu5Gc(a2-3)Gal(b1-4)GlcNAc(b1-3)Gal(b1-4)GlcNAc(b1-2)Man(a1-6)]Man(b1-4)GlcNAc(b1-4)GlcNAc
# How it was run: as §1
# [30] = target: Neu5Gc(a2-3)Gal(b1-4)[Fuc(a1-3)]GlcNAc
# How it was run: as §1
# [31] = target: Neu5Gc(a2-6)Gal(b1-4)GlcNAc
# How it was run: as §1
# Neu5Gc(a2-6)GalNAc = target: Neu5Gc(a2-6)GalNAc
# How it was run: as §1
# [32] = target: Neu5Gc(a2-8)Neu5Ac(a2-3)Gal(b1-4)GlcNAc
# How it was run: as §1
# [33] = target: Neu5Gc(a2-8)Neu5Gc(a2-3)Gal(b1-4)GlcNAc
# How it was run: as §1
binder,measurement,setting,value
"Als1 (Candida albicans), P46590 (protein) KTITGVFDSFNSLTWSNAANYAFKGPGYPTWNAVLGWSLDGTSANPGDTFTLNMPCVFKYTTSQTSVDLTADGVKYATCQFYSGEEFTTFSTLTCTVNDALKSSIKAFGTVTLPIAFNVGGTGSSTDLEDSKCFTAGTNTVTFNDGDKDISIDVEFEKSTVDPSGYLYASRVMPSLNKVTTLFVAPQCENGYTSGTMGFSSSNGDVAIDCSNIHIGITKGLNDWNYPVSSESFSYTKTCTSNGIQIKYQNVPAGYRPFIDAYISATDVNQYTLAYTNDYTCAGSRLQSKPFTLRWTGYKNSDAGSNGIVIVATTRTVTDSTTAVTTLPFNPSVDKTKTIEILQPIPTTTITTSYVGVTTSYLTKTAPIGETATVIVDVPYHTTTTVTSEWTGTITTTTTRTNPTDSIDTVVVQVP",glycan array binding signal (z-score),[1],-0.213
same,glycan array binding signal (z-score),[2],0.871
same,glycan array binding signal (z-score),[3],-0.729
same,glycan array binding signal (z-score),[4],0.161
same,glycan array binding signal (z-score),[5],0.516
same,glycan array binding signal (z-score),Neu5Ac(a2-6)GalNAc,-0.464
same,glycan array binding signal (z-score),[6],1.21
same,glycan array binding signal (z-score),[7],0.305
same,glycan array binding signal (z-score),[8],-0.313
same,glycan array binding signal (z-score),[9],0.779
same,glycan array binding signal (z-score),Neu5Ac(a2-8)Neu5Ac,-0.045
same,glycan array binding signal (z-score),[10],-0.627
same,glycan array binding signal (z-score),[11],-0.513
same,glycan array binding signal (z-score),[12],-0.226
same,glycan array binding signal (z-score),[13],1.4
same,glycan array binding signal (z-score),[14],-0.389
same,glycan array binding signal (z-score),[15],-0.372
same,glycan array binding signal (z-score),[16],-0.244
same,glycan array binding signal (z-score),[17],-0.083
same,glycan array binding signal (z-score),[18],0.612
same,glycan array binding signal (z-score),[19],-0.209
same,glycan array binding signal (z-score),[20],-0.38
same,glycan array binding signal (z-score),[21],-0.049
same,glycan array binding signal (z-score),[22],-0.341
same,glycan array binding signal (z-score),Neu5Ac(b2-6)GalNAc,0.73
same,glycan array binding signal (z-score),[23],-0.459
same,glycan array binding signal (z-score),[24],-0.53
same,glycan array binding signal (z-score),[25],-0.398
same,glycan array binding signal (z-score),[26],-0.535
same,glycan array binding signal (z-score),[27],-0.349
same,glycan array binding signal (z-score),Neu5Gc(a2-3)Gal(b1-4)Glc,1.07
same,glycan array binding signal (z-score),[28],0.201
same,glycan array binding signal (z-score),[29],-0.622
same,glycan array binding signal (z-score),[30],0.975
same,glycan array binding signal (z-score),[31],-0.432
same,glycan array binding signal (z-score),Neu5Gc(a2-6)GalNAc,-0.745
same,glycan array binding signal (z-score),[32],4.63
same,glycan array binding signal (z-score),[33],0.794
